One block for each binder: values may come before it.
How the values were obtained:
[1] = target: T1, mouse B7-H4-Fc (mouse; human); experiment: ELISA on coated mouse B7-H4Fc
T1 construct: also called mB7-H4-Fc; mB7-H4-hFc
Procedure: (§1) About 1-2 μg/ml of human or mouse B7-H4-Fc (or his-tagged) was immobilized on ELISA plates (Immuno 2HB, Thermo scientific, cat #3455) at 4° C. overnight. After blocking the plates with 3% PBS+milk, serial diluted antibodies were added to the blocked plates and incubated at RT for 1-1.5 h. After washing the plates with PBS-T (0.05%), horse radish peroxidase (HRP)-conjugated antibody targeting the hFab was added to the plate. Signals were developed by adding 3,3′,5,5′-Tetramethylbenzidine (TMB (followed 1N of H₂SO₄ to stop the reaction. The OD at 450 nm was read by ELISA plate reader (Infinite M1000 from TECAN). GraphPad from Prism was used to plot OD450 vs. antibody concentration curve and to calculate the EC50 values.

[2] = target: T2, mouse B7-H4-his (mouse, UniProt Q7TSP5 25-257); experiment: ELISA on coated mouse B7-H4his
T2 construct: also called mB7-H4-his; mB7-H4-His; not shown: his tag
T2 sequence: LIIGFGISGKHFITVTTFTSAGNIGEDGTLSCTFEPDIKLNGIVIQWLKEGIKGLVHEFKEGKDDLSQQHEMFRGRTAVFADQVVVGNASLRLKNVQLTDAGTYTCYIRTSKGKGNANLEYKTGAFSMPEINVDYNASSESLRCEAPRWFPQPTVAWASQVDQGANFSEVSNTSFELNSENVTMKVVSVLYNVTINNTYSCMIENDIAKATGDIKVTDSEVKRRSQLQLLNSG
Procedure: as §1

[3] = target: T3, human B7-H4-Fc (human); experiment: ELISA on coated human B7-H4Fc
T3 construct: also called hB7-H4-Fc; hB7-H4 Fc
Procedure: as §1

[4] = target: T4, human B7-H4 expressed on cells (human, UniProt Q7Z7D3 25-282); experiment: flow cytometry on SK-BR-3 cells
T4 construct: Transfected CHO cells or tumor cell lines that carry hB7-H4; also called cellular hB7-H4
T4 sequence: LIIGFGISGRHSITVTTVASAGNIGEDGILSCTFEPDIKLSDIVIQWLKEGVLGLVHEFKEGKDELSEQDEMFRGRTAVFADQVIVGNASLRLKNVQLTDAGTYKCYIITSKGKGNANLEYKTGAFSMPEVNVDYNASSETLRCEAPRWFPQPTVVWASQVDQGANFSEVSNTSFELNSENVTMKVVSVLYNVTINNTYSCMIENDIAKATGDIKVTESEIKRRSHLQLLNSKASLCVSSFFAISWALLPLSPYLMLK
Procedure: Cells were harvested, washed once, and then re-suspended to the concentration of 1×10⁶ cells/ml in ice cold FACS Buffer. 25 μl of cell suspension was added to each well of a 96-well round-bottom microliter plate. Serially diluted antibodies or fusion proteins were added to each well and incubated for 1 hour at 4° C. Cells were washed three times by centrifugation at 1500 rpm for 5 minutes, and then stained with secondary antibody (1:200 dilution) for 30 min at 4° C. in the dark. Cells were washed once, re-suspended in 100 μl PBS buffer and then analyzed using Guava Flow Cytometry EasyCyte system.

- binding result [1]: no binding (tested: 10 nM)
- binding result [2]: no binding (tested: 10 nM)
- EC50 (read off the curve) [3]: ~100 pM
B1: 3F2/50A10-IL15-LS (other)
heavy 1: QVQLVQSGAEVKKPGASVKVSCKASGYTFTAQYMYWVRQAPGQGLEWMGRINPTSGNTVYAQKLQGRVTMTRDTSTSTVYMELSSLRSEDTAVYYCARGINWFDPWGQGTLVTVSSASTKGPSVFPLAPSSKSTSGGTAALGCLVKDYFPEPVTVSWNSGALTSGVHTFPAVLQSSGLYSLSSVVTVPSSSLGTQTYICNVNHKPSNTKVDKKVEPKSCDKTHTCPPCPAPELLGGPSVFLFPPKPKDTLMISRTPEVTCVVVDVSHEDPEVKFNWYVDGVEVHNAKTKPREEQYNSTYRVVSVLTVLHQDWLNGKEYKCKVSNKALPAPIEKTISKAKGQPREPQVYTLPPCRDELTKNQVSLWCLVKGFYPSDIAVEWESNGQPENNYKTTPPVLDSDGSFFLYSKLTVDKSRWQQGNVFSCSVLHEALHSHYTQKSLSLSPGK
heavy 2: QVQLVQSGAEVKKPGASVKVSCKASGYTFTAQYMYWVRQAPGQGLEWMGRINPTSGNTVYAQKLQGRVTMTRDTSTSTVYMELSSLRSEDTAVYYCARGINWFDPWGQGTLVTVSSASTKGPSVFPLAPSSKSTSGGTAALGCLVKDYFPEPVTVSWNSGALTSGVHTFPAVLQSSGLYSLSSVVTVPSSSLGTQTYICNVNHKPSNTKVDKKVEPKSCDKTHTCPPCPAPELLGGPSVFLFPPKPKDTLMISRTPEVTCVVVDVSHEDPEVKFNWYVDGVEVHNAKTKPREEQYNSTYRVVSVLTVLHQDWLNGKEYKCKVSNKALPAPIEKTISKAKGQPREPQVCTLPPSRDELTKNQVSLSCAVKGFYPSDIAVEWESNGQPENNYKTTPPVLDSDGSFFLVSKLTVDKSRWQQGNVFSCSVLHEALHSHYTQKSLSLSPGSCPPPMSVEHADIWVKSYSLYSRERYICNSGFKRKAGTSSLTECVLNKATNVAHWTTPSLKCIRDPALVHQRPAPPSGGSGGGGSGGGSGGGGSLQ[letters of about 120 residues not shown]
light: DIQMTQSPSSLSASVGDRVTITCQASQDISNYINWYQQKPGKAPKLLIYAASRLQSGVPSRFSGSGSGTDFTLTISSLQPEDFATYYCQQSYRSPFTFGQGTKLEIKRTVAAPSVFIFPPSDEQLKSGTASVVCLLNNFYPREAKVQWKVDNALQSGNSQESVTEQDSKDSTYSLSSTLTLSKADYEKHKVYACEVTHQGLSSPVTKSFNRGEC
notes: As 50A10/IL15 with M428L/N434S (LS) in both heavy chains

- EC50 (read off the curve) [1]: ~200 pM
- EC50 (read off the curve) [2]: ~200 pM
- EC50 (read off the curve) [3]: ~200 pM
- EC50 (read off the curve) [4]: ~2000 pM
B2: 39A11/57G8-IL15-LS (other)
heavy 1: EVQLLESGGGLVQPGGSLRLSCAASGFTFSSYGMHWVRQAPGKGLEWVASISSSSGYIYYADSVKGRFTISRDNSKNTLYLQMNSLRAEDTAVYYCARASSGMDVWGQGTTVTVSSASTKGPSVFPLAPSSKSTSGGTAALGCLVKDYFPEPVTVSWNSGALTSGVHTFPAVLQSSGLYSLSSVVTVPSSSLGTQTYICNVNHKPSNTKVDKKVEPKSCDKTHTCPPCPAPELLGGPSVFLFPPKPKDTLMISRTPEVTCVVVDVSHEDPEVKFNWYVDGVEVHNAKTKPREEQYNSTYRVVSVLTVLHQDWLNGKEYKCKVSNKALPAPIEKTISKAKGQPREPQVYTLPPCRDELTKNQVSLWCLVKGFYPSDIAVEWESNGQPENNYKTTPPVLDSDGSFFLYSKLTVDKSRWQQGNVFSCSVLHEALHSHYTQKSLSLSPGK
heavy 2: EVQLLESGGGLVQPGGSLRLSCAASGFTFSSYGMHWVRQAPGKGLEWVASISSSSGYIYYADSVKGRFTISRDNSKNTLYLQMNSLRAEDTAVYYCARASSGMDVWGQGTTVTVSSASTKGPSVFPLAPSSKSTSGGTAALGCLVKDYFPEPVTVSWNSGALTSGVHTFPAVLQSSGLYSLSSVVTVPSSSLGTQTYICNVNHKPSNTKVDKKVEPKSCDKTHTCPPCPAPELLGGPSVFLFPPKPKDTLMISRTPEVTCVVVDVSHEDPEVKFNWYVDGVEVHNAKTKPREEQYNSTYRVVSVLTVLHQDWLNGKEYKCKVSNKALPAPIEKTISKAKGQPREPQVCTLPPSRDELTKNQVSLSCAVKGFYPSDIAVEWESNGQPENNYKTTPPVLDSDGSFFLVSKLTVDKSRWQQGNVFSCSVLHEALHSHYTQKSLSLSPGSCPPPMSVEHADIWVKSYSLYSRERYICNSGFKRKAGTSSLTECVLNKATNVAHWTTPSLKCIRDPALVHQRPAPPSGGSGGGGSGGGSGGGGSLQ[letters of about 120 residues not shown]
light: DIQMTQSPSSLSASVGDRVTITCRASQSIRSYLNWYQQKPGKAPKLLIYYASSLQSGVPSRFSGSGSGTDFTLTISSLQPEDFATYYCQQYYSTPLTFGQGTKVEIKRTVAAPSVFIFPPSDEQLKSGTASVVCLLNNFYPREAKVQWKVDNALQSGNSQESVTEQDSKDSTYSLSSTLTLSKADYEKHKVYACEVTHQGLSSPVTKSFNRGEC
notes: As 57G8/IL15 with M428L/N434S (LS) in both heavy chains

From US20230312724A1 (KADMON, published 2023)
